Source: article PMC4336329 (PLoS ONE, 2015)
The campaign covered roughly 310,000 compounds. About 2,200 (0.71%) showed an effect of 50% or more. Effects have a minus sign here. Some of the results follow.

biological target: human ether-à-go-go-related gene (hERG) potassium channel (human, UniProt Q12809); test: primary screen, population patch clamp on CHO cells stably expressing hERG
Sequence (Q12809 whole entry, looked up): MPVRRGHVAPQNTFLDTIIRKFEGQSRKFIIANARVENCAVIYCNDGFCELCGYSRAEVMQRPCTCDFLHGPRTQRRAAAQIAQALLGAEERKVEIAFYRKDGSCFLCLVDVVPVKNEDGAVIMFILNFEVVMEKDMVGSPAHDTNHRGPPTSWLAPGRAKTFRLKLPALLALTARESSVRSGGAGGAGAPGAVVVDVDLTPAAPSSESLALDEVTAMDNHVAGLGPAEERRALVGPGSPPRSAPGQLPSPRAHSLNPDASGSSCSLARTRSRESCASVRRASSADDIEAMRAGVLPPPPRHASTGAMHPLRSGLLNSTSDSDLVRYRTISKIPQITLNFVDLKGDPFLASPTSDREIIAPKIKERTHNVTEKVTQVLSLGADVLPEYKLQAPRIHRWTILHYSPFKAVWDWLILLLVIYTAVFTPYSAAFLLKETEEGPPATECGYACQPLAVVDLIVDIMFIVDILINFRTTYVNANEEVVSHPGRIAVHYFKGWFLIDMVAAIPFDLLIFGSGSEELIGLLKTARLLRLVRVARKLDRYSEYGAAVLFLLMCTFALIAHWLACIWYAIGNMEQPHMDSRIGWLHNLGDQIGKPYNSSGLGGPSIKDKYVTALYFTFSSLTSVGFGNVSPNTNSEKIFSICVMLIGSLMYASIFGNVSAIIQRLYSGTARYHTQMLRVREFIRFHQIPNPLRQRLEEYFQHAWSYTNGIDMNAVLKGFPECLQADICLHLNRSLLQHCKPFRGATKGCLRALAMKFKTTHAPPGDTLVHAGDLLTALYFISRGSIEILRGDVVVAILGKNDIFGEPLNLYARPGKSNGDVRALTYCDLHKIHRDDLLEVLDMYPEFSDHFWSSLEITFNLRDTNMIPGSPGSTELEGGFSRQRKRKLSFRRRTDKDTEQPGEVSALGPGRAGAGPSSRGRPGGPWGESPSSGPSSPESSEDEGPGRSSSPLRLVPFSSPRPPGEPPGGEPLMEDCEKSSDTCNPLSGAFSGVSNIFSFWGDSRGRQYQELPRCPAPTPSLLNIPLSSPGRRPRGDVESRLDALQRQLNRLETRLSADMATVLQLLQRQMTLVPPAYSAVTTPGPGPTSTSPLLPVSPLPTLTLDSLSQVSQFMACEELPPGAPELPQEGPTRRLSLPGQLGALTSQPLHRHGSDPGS

SMILES	hERG current change (%, negative = inhibition) at 1uM [%]
CCC(C(=O)N1CCN(S(C)(=O)=O)CC1)c1ccccc1 (centres unmarked)	-6.56
Cc1ccc(NC(=O)N2CCC(C(=O)c3ccc(F)cc3)CC2)cc1	6.24
CCOc1ccc(S(=O)(=O)Nc2cccc(C(=O)NCCCN3CCCC3=O)c2)cc1	12.9
CN(CC(=O)Nc1ccc(C(N)=O)cc1)CC(=O)Nc1ccccc1Cl	10.4
COc1cccc(-c2c(-c3cc(OC)cc(OC)c3)n(C)c3ccc(-c4ccc(OC)nc4)cc23)c1	12.2
CC(C)N(Cc1cc2ccccc2[nH]c1=O)C(=O)C(C)(C)C	5.63
COC(=O)CN1C(=S)N(c2ccc(F)cc2)C(=O)C1CC(=O)Nc1ccc(F)cc1 (centres unmarked)	1.71
C=C(C)Cn1c(NCCC)nc2c1c(=O)n(C)c(=O)n2C	6.7
COc1ccc(Cl)cc1NC(=S)Nc1cccnc1	6.72
O=C(NC(=S)N(Cc1ccccc1)Cc1ccccc1)c1ccccc1F	14.8
COc1cccc(C2C3=C(CC(C)(C)CC3=O)Nc3cc(OC)c(OC)cc32)c1 (centres unmarked)	12.4
CCn1nc(C)c(NC(=O)CCCSc2nc(-c3ccco3)cc(C(F)(F)F)n2)c1C	10.1
C=CCNC(=O)c1n[nH]c2c1CC(C(C)(C)CC)CC2 (centres unmarked)	16.2
COCCCn1c(=O)c2ccccc2n(CC(=O)Nc2ccc3c(c2)OCCO3)c1=O	15.6
CC(=O)N1CCC(C(=O)Nc2ccc(S(=O)(=O)N3CCC(C)CC3)cc2)CC1	-1.37
Cc1nn(CC2CC2)c(=O)n1N(C)c1ncc(C(F)(F)F)cc1Cl	5.29
CCOC(=O)c1nn(-c2cccc(Cl)c2)c(C)c1C(C)=O	8.56
COCCSc1ccccc1C(=O)Nc1cccnc1	14.2
Cc1ccc(C(=O)Cn2c(N3CCOCC3)nc3c2c(=O)n(C)c(=O)n3C)cc1	5.32
CCCCNC(=O)C1CC(=O)N(CCc2ccc(C)cc2)C1 (centres unmarked)	13.9
CCCOc1ccc(Cc2nn[nH]n2)cc1	14.6
COc1cccc(NC(=O)Cn2c3ccc(F)cc3c3nc4n(c(=O)c32)CCS4)c1	10.6

SMILES	hERG current change (%, negative = inhibition) at 1uM [%]
CCOC1=C/C(=C/c2c(N)n3oc(C)cc3nc2=O)C=CC1=O	7.78
CCOC(=O)c1cnc(-n2cc(C)cn2)nc1NCc1ccc2c(c1)OCO2	9.44
CCCC(=O)n1nc(-c2ccc(Cl)cc2)nc1SC	21.8
COc1cc2c(cc1OC)CN(CC(=O)NC(=O)NC(C)(C)C)CC2	8.35
Cc1ccc(CS(=O)(=O)c2ccc(C(=O)N3CCCCC3)cc2[N+](=O)[O-])cc1	1.81
Cc1cc(C)nc(SCC(=O)c2ccc3c(c2)OCCO3)n1	1.89
CCN(CC)S(=O)(=O)c1cccc(C(=O)N2CCCc3ccccc32)c1	5.5
N#CCCN1CCN(S(=O)(=O)c2ccc3c(c2)CCC3)CC1	13.8
CS(=O)(=O)N(CC(=O)Nc1ccccc1-c1ccccc1)c1cccc(F)c1	13.2
C/C(O)=c1/c(=O)nc2cccc3c2=c1c1ccccc1c3=O	0.0122
Cc1cc(-c2nc(-c3ccc(C(C)(C)C)cc3)no2)no1	13.6
COC(=O)c1cc(NC2c3ccccc3C(=O)N2c2cccnc2)cc(C(=O)OC)c1 (centres unmarked)	-7.48
CCCn1c2ccccc2c2cnn(CC(=O)NCCCN3CCCCC3CC)c(=O)c21 (centres unmarked)	-5.89
Cc1ncc([N+](=O)[O-])n1CCN1C(=O)c2ccccc2C1=O	5.97
CC(OC(=O)C1=COCCO1)C(=O)NC(C)c1ccc(Cl)cc1Cl (centres unmarked)	8.62
COc1ccccc1N1CCN(C(=O)C(=O)c2c(C)[nH]c3ccccc23)CC1	13.5
O=C(NCc1ccc(F)cc1)c1ccc(S(=O)(=O)N2CCCCC2)cc1	24.3
CC(C)Oc1ccc(CNC(=O)C2CCN(C(=O)N3CCOc4ccccc43)CC2)cc1	6.25
COc1cc(N=Nc2ccc3ccccc3c2)ccc1O	12.7
COc1ccc(NS(=O)(=O)c2ccc(NC(=O)c3ccc(N(C)S(C)(=O)=O)cc3)cc2)cc1	7.73
CC(C)CNC(=O)CN(c1ccccc1)S(=O)(=O)c1ccccc1[N+](=O)[O-]	8.13
O=[n+]1c2c(n([O-])c3cc(Cl)ccc31)CCCC2	-1.7
